# Data reported in PubChem BioAssay AID624172 (National Center for Advancing Translational Sciences (NCATS), 2012).
# Screen size: about 380,000 compounds; about 25 (0.007%) were called active. The shares of active, inactive and inconclusive entries below differ from those in the screen. Calls come from the whole dose curve; as a rule, active = well fitted activation curve with a large enough effect; inconclusive = small, poorly fitted or top-dose-only effect; inactive = no such curve, though single readings can be large or run the other way. Potencies of inconclusive entries are left out as doubtful fits.
# Target: Glucagon-like peptide 1 receptor (Homo sapiens) (UniProt P43220)
# Chain of UniProt P43220 (P43220 whole entry, looked up): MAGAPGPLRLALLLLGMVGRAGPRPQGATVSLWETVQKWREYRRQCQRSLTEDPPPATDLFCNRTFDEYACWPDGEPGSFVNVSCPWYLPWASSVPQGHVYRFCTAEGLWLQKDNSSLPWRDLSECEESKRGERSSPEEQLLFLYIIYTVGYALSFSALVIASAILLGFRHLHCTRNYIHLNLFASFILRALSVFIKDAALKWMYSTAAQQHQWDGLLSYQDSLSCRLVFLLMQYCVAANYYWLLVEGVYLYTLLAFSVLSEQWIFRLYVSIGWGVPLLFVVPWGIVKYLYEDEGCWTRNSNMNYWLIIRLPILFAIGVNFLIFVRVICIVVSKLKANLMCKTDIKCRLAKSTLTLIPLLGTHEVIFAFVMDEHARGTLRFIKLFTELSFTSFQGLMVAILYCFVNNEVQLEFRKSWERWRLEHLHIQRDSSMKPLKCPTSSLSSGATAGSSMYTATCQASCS
# Experiment: qHTS of GLP-1 Receptor Agonists; for activation: % of control where 0% means no effect
# Details: HEK293 GLP-1R CRE-luciferase, luminescence, 4-6 h, cells express a hypersensitive GLP-1R form; activation: at 45.6 µM (top of the series) unless noted
# Potency is the fitted concentration of half-maximal effect; tags give direction and shape of the fitted curve.
Compound,Potency,activation
O=C(/C=C/c1ccco1)Nc1cccc(S(=O)(=O)N2CCOCC2)c1,inactive,–
CC(NCCCSc1ccccc1)C(O)c1ccc(O)cc1 (centres undefined),"inconclusive [activator, full curve, poor fit]",–
COc1ccc(-c2oc3ccccc3c2C#Cc2cncn2C)cc1,"inconclusive [activator, single point]",–
COC(=O)C1=CN(Cc2ccc(OC)c(OC)c2)C=C(C(=O)OC)C1c1cccc(O)c1,"inconclusive [activator, single point]",–
CCN=c1scc(-c2cccs2)n1/N=C/c1cc(OC)ccc1O,"inconclusive [activator, partial curve, poor fit]",–
CN(CCOc1ccccc1)Cc1ccccc1,inactive,–
CC(C)Oc1nc(-c2ccccc2Cl)nc2ccccc12,"inconclusive [activator, single point]",–
Cc1ccc(-c2nn3cnnc3c3ccccc23)cc1C,"inconclusive [activator, partial curve, poor fit]",–
Cc1nc(C)c(-c2ccc(SCC(=O)Nc3cccc(Cl)c3C)nn2)s1,"inconclusive [activator, partial curve]",–
CCC[C@@H](CN1CCC[C@H]1CN1C(N)=NC[C@@H]1Cc1ccccc1)N1C[C@@H](Cc2ccccc2)N(CCCC2CCCC2)C1=N,inactive,–
COc1ccc(C2=NN(C(=O)c3ccco3)C(c3ccco3)C2)cc1OC (centres undefined),"inconclusive [activator, partial curve]",–
C#CCNC(=O)C1=C[C@@H](c2ccc(C(F)(F)F)cc2)C[C@@H](OCCCCO)O1,inactive,–
Cc1ccc(NC(=O)CN(C)Cc2cc(=O)n3ccsc3n2)cc1,"inconclusive [activator, partial curve, poor fit]",–
Cc1nn2c(COc3ccc(NC(=O)C(C)C)cc3)nnc2c2ccccc12,"inconclusive [activator, single point]",–
c1ccc(-c2ccccc2-c2nc(-c3cccnc3)no2)cc1,"inconclusive [activator, single point]",–
CCOC(=O)COc1ccc(Br)cc1/C=C/c1[nH]c(=O)[nH]c(=O)c1[N+](=O)[O-],inactive,–
COc1ccccc1NC(=S)NC1CC2CCC1C2 (centres undefined),inactive,–
COc1ccc(N/C=C\C(=O)c2ccc(C)cc2)cc1OC,"inconclusive [activator, partial curve, poor fit]",–
CCOc1ccc(NC(=O)CN2CCN(c3ccc(F)cc3)CC2)cc1,inactive,–
CCOP(=O)(OCC)c1ccc2ccc3ccccc3c(=O)c2c1,"inconclusive [activator, single point]",–
O=C(O)Cn1cc(/C=C/[N+](=O)[O-])c2ccccc21,inactive,–
COc1cc2c(cc1OC)-c1cc(Nc3ccc(C)cc3)nc(=O)n1CC2,"inconclusive [activator, partial curve, poor fit]",–
C/C(=N\NC(=O)c1n[nH]c2c1CCC2)c1ccco1,inactive,–

Compound,Potency,activation
COc1ccc(C2c3ccc(O)cc3Oc3ncn4nc(-c5ccccn5)nc4c32)cc1OC (centres undefined),"inconclusive [activator, partial curve]",–
COc1ccc(-c2cc3ccc(OCC(C)=O)cc3oc2=O)cc1,"inconclusive [activator, single point]",–
COCCCn1c(=O)c2sccc2n(Cc2ccccc2)c1=O,–,inconclusive: 49.3% [activator]
COc1cc2cc(C)c(SCC(=O)N3CCN(C(=O)c4ccco4)CC3)nc2cc1OC,"inconclusive [activator, partial curve]",–
CCOC(=O)COc1ccc(/C=C2/SC(=Nc3ccccc3)N(Cc3cccnc3)C2=O)cc1OC,"inconclusive [activator, partial curve]",–
COc1cccc(C(=O)N2CCC[C@@H]2C(=O)N2CCC[C@H]2C(=O)NCc2ccncc2)c1,"inconclusive [activator, single point]",–
O=S(=O)(c1cccc(-c2nc3ccccc3s2)c1)N1CCCC1,"inconclusive [activator, partial curve, poor fit]",–
CCN(Cc1ccc(OC)c(F)c1)C(=O)c1oc2ccccc2c1COC,"inconclusive [activator, partial curve]",–
CCCS/C(N)=N/N=C/c1cc(C)ccc1O,"inconclusive [activator, partial curve, poor fit]",–
CN(C)CCCN(C(=O)c1ccc(Br)s1)c1nc2cc3c(cc2s1)OCCO3,inactive,–
COc1ccc(C2CC(=O)Nc3sc(=N)c4c(N)c(C#N)c(N)nc4c32)cc1OC (centres undefined),"inconclusive [activator, partial curve]",–
CCc1ccccc1NC(=S)NC1CC2CCC(C1)N2Cc1ccco1 (centres undefined),inactive,–
CC(C)(CO)Cc1cc(C(C)(C)C)c(O)c(C(C)(C)C)c1,"inconclusive [activator, single point]",–
C[C@H](CO)N1C[C@H](C)[C@@H](CN(C)CC2CC2)Oc2c(NC(=O)C3CC3)cccc2C1=O,inactive,–
CSc1ccc(S(=O)(=O)NCc2ccc(Cl)cc2Cl)cc1,"inconclusive [activator, partial curve, poor fit]",–
Cc1cc(C(=O)N2CCN(c3ccc([N+](=O)[O-])cc3)CC2)n[nH]1,inactive,–
Cc1nn(-c2ccccc2)c2nc(-c3ccco3)cc(C(=O)O)c12,inactive,–
COc1ccccc1-c1cc(NC(C)=O)c2ncc(-c3ccc(F)cc3)n2c1,"inconclusive [activator, partial curve, poor fit]",–
COc1cc2c(cc1OC)-c1cc(N3CCc4ccccc43)nc(=O)n1CC2,"inconclusive [activator, partial curve, poor fit]",–
COc1ccccc1CNC(=O)CCS(=O)(=O)Cc1ccc(C)cc1,inactive,–
CC(C)NCC(O)c1cc(O)cc(O)c1 (centres undefined),"inconclusive [activator, single point]",–
CCOC(=O)c1cccnc1SCc1cc(=O)n2ccccc2n1,"inconclusive [activator, partial curve]",–
COc1cc(-c2noc(C)c2/C=C/c2ccc(OC(C)=O)cc2)cc(OC)c1OC,"inconclusive [activator, full curve, poor fit]",–

Compound,Potency,activation
CC(C)NC(=O)NC(=O)COC(=O)C1(C)CC1(Cl)Cl (centres undefined),"inconclusive [activator, full curve, poor fit]",–
CCn1cc(CN2CCCC(CNC(=O)COc3ccccc3OC)C2)c(C)n1 (centres undefined),inactive,–
COc1ccc(-c2sc3ccc(N4CCOCC4)cc3c2C#CC2(O)CCCCC2)cc1,"inconclusive [activator, partial curve, poor fit]",–
O=S(=O)(Cc1ccccc1)N1CCC(N2CCN(c3ccccc3)CC2)CC1,inactive,–
COc1ccc(/C=N/NC(=S)NCC2CCCO2)cc1 (centres undefined),"inconclusive [activator, partial curve, poor fit]",–
CCOc1ccc(NC(=O)CN(C)C(=O)c2c(C)nn(Cc3ccccc3Cl)c2C)cc1OCC,inactive,–
COc1ccc(C2=NCCc3cc(OC)c(OC)cc32)cc1OC,"inconclusive [activator, partial curve]",–
Cc1cccc(NC(=O)COc2ccccc2)c1,"inconclusive [activator, single point]",–
CCn1c2ccccc2c2c3ncc4cccn4c3ccc21,"inconclusive [activator, partial curve, poor fit]",–
CCOc1cc(/C=C/C(=O)c2ccc(OC)c(CN3CCOCC3)c2)cc(Br)c1O,inactive,–
CC(C)Cn1cnc2c(SCCc3ccccc3)nc(N)nc21,"inconclusive [activator, partial curve]",–
COCC(C)n1c(SCc2cc(C(=O)OC)c(C)o2)nc2ccccc2c1=O (centres undefined),"inconclusive [activator, single point]",–
COc1ccc([C@H]2CC(=O)C=C(c3ccc(C)c([N+](=O)[O-])c3)C2)cc1,"inconclusive [activator, partial curve, poor fit]",–
COc1cccc(C(=O)Nc2nnc(-c3ccc(Cl)cc3)o2)c1,inactive,–
CC1CCCC(C)N1C(=O)Cn1cc(/C=C2/C(=O)Nc3ccccc32)c2ccccc21 (centres undefined),inactive,–
OCC(CBr)(CBr)CBr,inactive,–
CCn1ncc(C2=NOC(C(=O)Nc3ccccc3C(=O)OC)C2)c1C (centres undefined),"inconclusive [activator, partial curve]",–
CCOC(=O)c1cc2c(=O)n3cccc(C)c3nc2n(Cc2ccco2)c1=NC(=O)c1cccnc1,inactive,–
COc1ccc(NC(=O)CN2C(=O)NC(C)(Cc3ccc(OC)c(OC)c3)C2=O)cc1 (centres undefined),inactive,–
CC(=O)CSc1ncnc2sc3c(c12)CCC(C)C3 (centres undefined),"inconclusive [activator, partial curve, poor fit]",–
COc1ccc2[nH]c3c(c2c1)CCN1C(=O)N([C@@H](C)C(=O)NCc2ccc(F)cc2)C(=O)[C@]31C,"inconclusive [activator, single point]",–
Cc1ccc(C2CCN(C(=S)Nc3cccc(C)c3)C2)cc1 (centres undefined),inactive,–
COc1cc(-c2cnc3c(NC=O)cc(-c4ccccc4Cl)cn23)cc(OC)c1OC,"inconclusive [activator, partial curve]",–
